Results on 22 molecules are retold here after article PMC12136788.

First the molecules themselves.
T1: UNK ZnF1-6 (called full-length) (human, UniProt Q9C0B0 30-357)
T1 sequence: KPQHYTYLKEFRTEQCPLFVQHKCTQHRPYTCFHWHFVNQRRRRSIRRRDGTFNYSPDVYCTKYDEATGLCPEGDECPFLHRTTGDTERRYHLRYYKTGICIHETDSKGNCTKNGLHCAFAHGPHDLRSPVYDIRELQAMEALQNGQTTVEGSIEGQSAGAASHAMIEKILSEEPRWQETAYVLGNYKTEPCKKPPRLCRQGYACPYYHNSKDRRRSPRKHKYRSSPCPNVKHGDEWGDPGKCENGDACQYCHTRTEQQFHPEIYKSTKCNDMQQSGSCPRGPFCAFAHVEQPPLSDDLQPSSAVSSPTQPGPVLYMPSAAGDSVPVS

B1: ENSG00000113758:stop:overlap|stop_codon|ENSG00000113758|stop_codon|NA|stop_codon (ssRNA)
RNA: GGGAGUUCUACAGUCCGACGAUCUCACAUGCUGGGAUGCAGACCCAGUUCCAGAAGAGGAGGAGGGCUUCGAGGGUGGUGAUUAGCGGUGGCGCCAGCCCUAGGCUACCCUUGCCAAGGCCGCCCACCUGCAUCAGCCUCUGGCAACAGAGGAUUGAGCAUCA
B2: chr12:49764829:49764866:+|3pUTR|ENSG00000139644|msi1_unk|total|mutant (ssRNA)
RNA: GGGAGUUCUACAGUCCGACGAUCACUUUUAAAGAAAAUACCUAACAGAUUUUUAAUACCGUUAUCUCUACCACUUUCUUUUCCCGUUUCUUGAUUUUCAGCUCAGGCUGCAUUCUAACUCAUACUGUGAAGACAAAGGUGUUUCAACAGAGGAUUGAGCAUCA
B3: chr16:74503563:74503676:-|CDS|ENSG00000090863|unk|total|mutant (ssRNA)
RNA: GGGAGUUCUACAGUCCGACGAUCGGCAACAUCACUGAGUAUCAGUGUCACCAGUACAUUACCAAGAUGACGGCCAUCAUUUUCCGUGAUUACCGUUUAAUCUGUGGCUUCAUGGAUGACUGCAAAAAUGACAUCAACAUUCUGCAACAGAGGAUUGAGCAUCA
B4: chr15:71825291:71825392:-|3pUTR|ENSG00000066933|unk|FALSE|unique (ssRNA)
RNA: GGGAGUUCUACAGUCCGACGAUCUGAAGCUAUUUUUGUUAAUAUUCUGGUUACUGAAGUUUAUUGUAAAUAUGUAUGUAUAGUAGGCAUAUUUCUUUUUAACCUUGUGCUUCCCUCCUUCCCAUGGAAUUUCUUCCCACAGAUCAACAGAGGAUUGAGCAUCA
B5: chr12:1780521:1780622:+|CDS|ENSG00000006831|msi1|total|mutant (ssRNA)
RNA: GGGAGUUCUACAGUCCGACGAUCCCCAAAUAUCUCCUUUGUGGCCCCUCUGCAAGAGAAGGUGGUCUUUGGAUUAUUUUUCUCCGGAGCCAUUCUCUGCCUUUCUUUUUCAUGGCUCUUCCACACAGUCUACUGCCACUCAGACAACAGAGGAUUGAGCAUCA
B6: chr2:69942770:69942871:+|3pUTR|ENSG00000059728|unk|total|mutant (ssRNA)
RNA: GGGAGUUCUACAGUCCGACGAUCUGUUUCCAGAUGUUUCUUUAUGUAAAUAUGACGCCAAUGUAAAUCCUGUGUCAAGAUCACCGAGAAUGGUGCUUUUUACUACAGUCCGCACAUGCAUUUUCCGAAACUACUACAUGUUUUCAACAGAGGAUUGAGCAUCA
B7: chr7:127374855:127374969:-|CDS|ENSG00000048405|unk|total|mutant (ssRNA)
RNA: GGGAGUUCUACAGUCCGACGAUCCCCCGAAGCCAUAUAUCCAAGUGUGGACAAACGAGAAUAUAUUAUUAAGCCCGAACCCACCGAAACUAAUCAAAAUGCAGUAUUUCAAUAUAUUUCGAGGACUGAUAAUCCUAUUGAAGUCAACAGAGGAUUGAGCAUCA
B8: ENSG00000124766:be:win_2151|3pUTR|ENSG00000124766|bound_else_gene|NA|bound_elsewhere_windowed (ssRNA)
RNA: GGGAGUUCUACAGUCCGACGAUCGUGUGACCGGCGCUAGGAAAUGACCCGAGAACCCCGUUGGAAGCGCAGCAGCGGGAGCUAGGGGCGGGGGCGGAGGAGGACACGAACUGGAAGGGGGUUCACGGUCAAACUGAAAUGGAUCAACAGAGGAUUGAGCAUCA
B9: ENSG00000189184:stop:overlap|stop_codon|ENSG00000189184|stop_codon|NA|stop_codon (ssRNA)
RNA: GGGAGUUCUACAGUCCGACGAUCUGGAUGCCAGUGAACUGGUGGCAGAGAUUAACAAACUGCUUCAAGAUGUCCGCCAGAGCUAGGAGAUUUUAGCGAAGCAUUUUUGUUUCCAUGUAUAUGGAAAUAGGGAACAACAACAACCAACAGAGGAUUGAGCAUCA
B10: chr7:6403675:6403689:+|3pUTR|ENSG00000136238|msi1_unk|FALSE|overlapping (ssRNA)
RNA: GGGAGUUCUACAGUCCGACGAUCACUGUCACUUGACCAAUACUGACCCUCUUUACCUCGCCCACGCGGACACACGCCUCCUGUAGUCGCUUUGCCUAUUGAUGUUCCUUUGGGUCUGUGAGGUUCUGUAAACUGUGCUAGUGCCAACAGAGGAUUGAGCAUCA
B11: chr7:101138926:101139078:+|3pUTR|ENSG00000106366|msi1|FALSE|unique (ssRNA)
RNA: GGGAGUUCUACAGUCCGACGAUCUAUUUUAAAGACCAAUUUAUGGGAGAAUUGCACACAGAUGUGAAAUGAAUGUAAUCUAAUAGAAGCCUAAUCAGCCCACCAUGUUCUCCACUGAAAAAUCCUCUUUCUUUGGGGUUUUUCCAACAGAGGAUUGAGCAUCA
B12: chr9:128583791:128583907:+|CDS|ENSG00000197694|unk|FALSE|bound_elsewhere (ssRNA)
RNA: GGGAGUUCUACAGUCCGACGAUCCAACCAGCAACAGCAAUUUAAUCGCAAUGUUGAGGAUAUUGAAUUGUGGCUAUAUGAAGUAGAAGGUCACUUGGCUUCGGAUGAUUACGGCAAAGAUCUUACCAAUGUGCAGAACCUCCACAACAGAGGAUUGAGCAUCA
B13: chr5:91369659:91369760:-|3pUTR|ENSG00000113369|msi1|total|mutant (ssRNA)
RNA: GGGAGUUCUACAGUCCGACGAUCUCAGCAUUUUCCAAGGUACCAAGUGUACUUAUUUUGUUGUUGUUGUUGUUGUUGUAUUUCCGAAGGAAUUCAGCUCUGAUGUUUUUAAAGAAAACCAGCAUCUCUGAUGUUGCAACAUACCAACAGAGGAUUGAGCAUCA
B14: ENSG00000107863:be:win_3851|CDS|ENSG00000107863|bound_else_gene|NA|bound_elsewhere_windowed (ssRNA)
RNA: GGGAGUUCUACAGUCCGACGAUCUGGCAGAAAAUUCAGAAAAAAAUAAGAUGGAACCAAGAAACCUAGCAAUAGUGUUUGGUCCCACCCUUGUUCGAACAUCAGAAGACAACAUGACCCACAUGGUCACCCACAUGCCUGACCCAACAGAGGAUUGAGCAUCA
B15: chr15:22866942:22867043:+|3pUTR|ENSG00000140157|msi1|total|mutant (ssRNA)
RNA: GGGAGUUCUACAGUCCGACGAUCUAAAGAUUUCACUAAUUUGGACCAAGAAAUUACUUUUCUUGUAUUUAAACAAACAAUGGCCGCUCACUAAAAUGACCUCAGCACAUGACGAUUUCUAUUAACAUUUUAUUGUUGCCGAAGCAACAGAGGAUUGAGCAUCA
B16: chr10:43183422:43183523:+|CDS|ENSG00000169826|msi1|FALSE|bound_elsewhere (ssRNA)
RNA: GGGAGUUCUACAGUCCGACGAUCUAAAGCCAUGAAUGAGGCCUCUCACUCCCACCUGGGAAUGCUGGUCUUCAGGGAGGAAAUAGAGACGCAUCUUCAUAAACAGGCAUACAGGACAAACAGUGAAGCUGUUGGUUGAAAUCACAACAGAGGAUUGAGCAUCA
B17: chr4:138171112:138171219:-|3pUTR|ENSG00000151012|msi1|total|mutant (ssRNA)
RNA: GGGAGUUCUACAGUCCGACGAUCUUUUUUUUUUUCACAUCAGUUUGAUCAGGAAAGUGUAUAACACAUCUCCGAGCAAGAGUCCGUUUGGUAUUAAAUCCUCAUCCGAACAACCACCUGUUUCACUAAUAACUUACCCCUGAUCAACAGAGGAUUGAGCAUCA
B18: chr8:27776916:27777017:+|CDS|ENSG00000171320|unk|total|mutant (ssRNA)
RNA: GGGAGUUCUACAGUCCGACGAUCAAACCACAAGUUACACUCCAGGGUGGAGCAGCAUUUUUUGUCCGAAAAAAAUCUUCUCUCCGAAAAUCGUCCCUGGAAAAUGAGCCGUCACUGGGACGCACCCAAAAGAGUAAAUCAGAACAACAGAGGAUUGAGCAUCA
B19: chr16:57472207:57472321:-|3pUTR|ENSG00000125170|unk|total|mutant (ssRNA)
RNA: GGGAGUUCUACAGUCCGACGAUCUCAAACUUUUGGUUGUGUGGGGUUUUUUGUUGUUUUUUGGGUUUUGUUUUUUAAUACUUCCGGGUCCUGAUUUGUGGGAACAGACCUUCUUGUAAAUAACCACUAUUUGAGUUGUGGCAGCAACAGAGGAUUGAGCAUCA
B20: chr7:32869766:32869881:-|CDS|ENSG00000170852|unk|FALSE|bound_elsewhere (ssRNA)
RNA: GGGAGUUCUACAGUCCGACGAUCAUGUACUGUUAUUUUCCAAGGUCUGACUCAUGGGUAGAAAUGGCCAUGAGACAGACUAGUAGGUCCUUUGCUUCAGCUGCAGCUUUUGGUGAUAAAAUUUUCUAUAUUGGAGGGUUGCAUCAACAGAGGAUUGAGCAUCA
B21: chr1:19339193:19339294:-|3pUTR|ENSG00000077549|msi1|total|mutant (ssRNA)
RNA: GGGAGUUCUACAGUCCGACGAUCGAGACCGUGUGGUUUUUGUUCACCCGGGCCCCCCGUCUUCCUCCCUGUCCCCCCAUUUACCGGCAUAAAAUCCACUGUCUGCCAGCCUCCCUUCCCUCCCACCUUUUUGGUACAUUGGUGCAACAGAGGAUUGAGCAUCA
B22: chr12:96943601:96943709:+|CDS|ENSG00000139350|unk|total|mutant (ssRNA)
RNA: GGGAGUUCUACAGUCCGACGAUCAACUCAGUGUUUCCUCCAAGAAAAAAUCCAGUAACUUCAAGUACUUCAGUAUUGCAUUCCCGUCCUCUUAAUGUUUUUAUGGGAUCUCCAGGGAAAGAGGAAAAUGAAAACCGUGAUCUACAACAGAGGAUUGAGCAUCA

Some of the results follow.

For the assay, the target named is T1, UNK ZnF1-6 (called full-length). The experiment in a line: nsRBNS (natural sequence RNA bind-n-seq); RBNS binding buffer (assumed for nsRBNS): 25 mM Tris pH 7.5, 150 mM KCl, 3 mM MgCl2, 0.01% Triton X-100, 500 ug/ml BSA, 20 U/ml SUPERase-In, 4 C; UNK is unkempt and MSI1 is Musashi-1; names of the RNAs are library labels; protein concentration not given here; high values mean tight binding.
Regarding B1, the binding signal turned out to be 0.797 enrichment R. Regarding B2, the binding signal was determined as 0.495 enrichment R. Consider B3, for which the binding signal amounted to 0.379 enrichment R. The figure for B4 is 0.797 enrichment R. The figure for B5 is 0.569 enrichment R. On to B6, for which the binding signal was 0.355 enrichment R.

Consider B7, for which the binding signal turned out to be 0.311 enrichment R.

B8 displayed a binding signal of 1.08 enrichment R. As for B9, the binding signal amounted to 1.53 enrichment R. The figure for B10 is 1.05 enrichment R; for B11 it is 0.69 enrichment R; for B12 it is 0.502 enrichment R.

Molecule B13 gave a binding signal of 0.292 enrichment R. With B14, the binding signal amounted to 0.381 enrichment R.

In the case of B15, the binding signal worked out at 0.474 enrichment R.

Consider B16, for which the binding signal came to 0.591 enrichment R. In turn, B17 yielded a binding signal of 0.593 enrichment R.

B18 returned a binding signal of 0.413 enrichment R. B19 gave a binding signal of 0.574 enrichment R. The figure for B20 is 0.714 enrichment R; for B21 it is 1.47 enrichment R.

B22 came in with a binding signal of 0.336 enrichment R.
